# Assay results from the supplement of paper PMC11417369.
# ± gives the standard deviation of the averaged measurements. This is one part of the list.
# Tested on: PfAP2-EXP AP2 domain (GST-tagged)
# Experiment: gcPBM binding intensity (ln(normalized median fluorescence intensity)); higher = stronger DNA binding
# In short: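 Alexa488 anti-GST antibody, scanned at 488 nm, detected GST-tagged P. falciparum DNA-binding domains that had been expressed in E. coli and incubated for 1 h on an Agilent 4 × 180k array. The array carried primer-extended double-stranded 36-bp intergenic genomic probes and negative controls. Binding intensity is the highest Masliner-normalised natural-log median intensity across replicate spots of either orientation of each probe.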
row,Sequence,gcPBM binding intensity (ln)
1,ATCATGTTATATACATGTACATATATATATATATAA [XGTACX_site609],8.51 ± 0.4
2,TTTTTAAAACATCACTGTACCCGTTATGGTGAACAT [XGTACX_site3483],8.46 ± 0.28
3,ATATTCTTTTTATGTGGTACTAATTTTTTTTTTTTA [XGTACX_site3791],8.69 ± 0.42
4,TAAAACATAAGAGACACACACACATATATATATATA [CACACA_site3643],9.8 ± 0.68
5,AGTAAAAGAAAGCACACACACATGTATATAGGTATG [CACACA_site7759],8.87 ± 0.52
6,TTTTTAAATAATTGAAGTACACATTTCTCTAAGTTG [XGTACX_site2846],8.2 ± 0.28
7,TTTTTTTTTTTGTTTAAACACACGAGCTTTCTTCTT [CACACA_site4085],8.77 ± 0.55
8,CATGTATTTTATATTACACACTAATATTATAGATAT [CACACA_site6819],8.27 ± 0.28
9,AAACATATAAACATATGTACATATAAACATATATAC [XGTACX_site5026],8.64 ± 0.33
10,ATTTCTCAATCTTAATGTACAAAAAAAAGGAAAAAG [XGTACX_site1210],8.65 ± 0.45
11,ATATGTTTTGTTTACGTGCACTGCTTTGTTTATATA [GTGCAC_site9622],9.68 ± 0.45
12,AGCATATTATCATATTGTACATATTATAATATATAT [XGTACX_site3907],8.69 ± 0.42
13,AGCAAATCAGATAGTAGTACATTTAAATTAGACTTT [XGTACX_site4172],8.48 ± 0.25
14,TAAAAATTTTAATAAACACACAATGAGATATTGAAT [CACACA_site5704],8.55 ± 0.45
15,CAAAATAAAAATAACACACACATTTATATATATACA [CACACA_site1190],8.62 ± 0.32
16,TTTTTAATTATCTTTTCCCATGGTTTCTCCGTTTTT [XGTACX_negctrl_site39],8.87 ± 0.61
17,GTATTAGATAAATACACACACAAGCATATATTTTTA [CACACA_site3431],8.27 ± 0.33
18,TCTATTCATTTTGAAGGTACACATTTCTTTATAATA [XGTACX_site6218],8.45 ± 0.35
19,AATAAATATATAAATACACACAAACATACATATATA [CACACA_site9340],8.73 ± 0.39

row,Sequence,gcPBM binding intensity (ln)
1,AAAAATATATATATATATATATATATAAGGAATATA [XGTACX_negctrl_site450],8.7 ± 0.33
2,AATATATCATTATATAAACACACAATATGTTTTTTA [CACACA_site9260],8.14 ± 0.43
3,AATACAATATAGTGAAAAATAATTAAATACAATAAG [XGTACX_negctrl_site161],8.62 ± 0.29
4,CGTAAACAATTATGATGTACATAAAATATATATATA [XGTACX_site2705],9.6 ± 0.22
5,TTGTTCCACAAAAATTTAGTCAAAAAAAAATAAAAA [TGCATGCA_negctrl_site546],8.28 ± 0.45
6,AATGAATAACAATACTATATGATTTTTAATACATTA [XGTACX_negctrl_site42],8.12 ± 0.4
7,ACAAAAAAAAAAATAACACACATGGGGGTGTATAAA [CACACA_site3797],9.2 ± 0.26
8,TTAAATTTTTTTTTGTGTACGAAAAACAGAAAAAAT [XGTACX_site8625],8.63 ± 0.37
9,ATATATATATACATATGTACATATAAAATAATTTTG [XGTACX_site3731],9.56 ± 0.12
10,TATGTGTATGGGAATGCATGTAAATATGTACATATA [TGCATGCA_site737],9.31 ± 0.38
11,AAAATTAAAATATATACACACATATATATATTAAAT [CACACA_site4419],8.23 ± 0.38
12,TCTTCCCAAATAAAGTGTACATAAATACGAATAATA [XGTACX_site4363],8.74 ± 0.53
13,TAATGTATATGTAAATGTACATGTATATTATTTAAA [XGTACX_site1840],8.36 ± 0.25
14,AAGATATTTGTATAATGTACAAAACTATATAAAACT [XGTACX_site1433],8.61 ± 0.24
15,ATCAAAGATAAATTTACACACATATATATATATATA [CACACA_site2969],10.1 ± 0.26
16,TATTTTCATTTGCGCGCACACAATAATAATTTTTGG [CACACA_site3525],9.04 ± 0.47
17,TATAAATTAATGACATGTACATAAAAGTATAGATGT [XGTACX_site6534],8.47 ± 0.2
18,TAAAAAATATAAATGACACACACTTAAAAACAAAGA [CACACA_site671],8.77 ± 0.44
19,AACAATTATTTATCTACACACTTTTATGTTATTTAC [CACACA_site9],8.77 ± 0.4

row,Sequence,gcPBM binding intensity (ln)
1,AAATATACAAAATATACACACATATTTATTTATGAT [CACACA_site2051],8.19 ± 0.38
2,TATTAAACAAATTATGCAAAAATAAATCAATATGTT [CACACA_negctrl_site171],8.68 ± 0.43
3,CAATTTATAAAGAAAACACACATATACATATATACA [CACACA_site1260],8.51 ± 0.35
4,TTAGGAAGCTCACAAAATAAAGTGAAAAGAAGAAAA [XGTACX_negctrl_site572],8.84 ± 0.62
5,ATTATTTTATAATTCACACATAAATAAAAAAAAAAT [CACACA_site5290],8.36 ± 0.45
6,AAAAGTTTTATTTAAATGAATTAATCTTTACTATAT [CACACA_negctrl_site282],7.98 ± 0.54
7,TGATTTCCAGGTTATTGTACAAAATTAATTTTCGAA [XGTACX_site2491],8.62 ± 0.4
8,ATATATATAAAACACACACACAAAAAAAATAAAGAC [CACACA_site117],9.34 ± 0.41
9,TTTTGTAGTTTATAAATAAAAGAGAATATGGTGCTT [CACACA_negctrl_site413],8.54 ± 0.4
10,TAAATATTATTTCATAGTACTTTTATTATTGATATA [XGTACX_site5566],8.45 ± 0.3
11,TAAATAAATATATATACACACATATATATATATATA [CACACA_site598],10.1 ± 0.36
12,TGTATGTATTAATGCGCACACAAAAAATAACAATAT [CACACA_site1848],9.04 ± 0.34
13,AAAAAAAAAAAAAAGAGTACACAGACGTTCAAAGGT [XGTACX_site7566],9.04 ± 0.56
14,ATAAAAAAAAAATAATGTACTTATATATATATATAT [XGTACX_site8282],10.1 ± 0.32
15,ATATATATATATAAATGTACATTGTGTGTTGTAAGA [XGTACX_site2434],10 ± 0.29
16,TATTGATTTAGAAACACACACTCGAAGATGTTTAAC [CACACA_site1129],8.4 ± 0.3
17,TTTAAAAAATGTTATATTATATAATTAAAAAAAAAA [CACACA_negctrl_site1509],8.21 ± 0.51
18,ACAGAGCTTTAAATACGTACATAATATATATTAAAT [XGTACX_site8221],8.71 ± 0.39
